# Among all 310,000 compounds or so, about 2,200 (0.71%) showed an effect of 50% or more. The effect is printed as a negative number. This is one part of the list.
# Target: human ether-à-go-go-related gene (hERG) potassium channel (human, UniProt Q12809)
# Test: primary screen, population patch clamp on CHO cells stably expressing hERG
# human ether-à-go-go-related gene (hERG) potassium channel, sequence (Q12809 whole entry, looked up): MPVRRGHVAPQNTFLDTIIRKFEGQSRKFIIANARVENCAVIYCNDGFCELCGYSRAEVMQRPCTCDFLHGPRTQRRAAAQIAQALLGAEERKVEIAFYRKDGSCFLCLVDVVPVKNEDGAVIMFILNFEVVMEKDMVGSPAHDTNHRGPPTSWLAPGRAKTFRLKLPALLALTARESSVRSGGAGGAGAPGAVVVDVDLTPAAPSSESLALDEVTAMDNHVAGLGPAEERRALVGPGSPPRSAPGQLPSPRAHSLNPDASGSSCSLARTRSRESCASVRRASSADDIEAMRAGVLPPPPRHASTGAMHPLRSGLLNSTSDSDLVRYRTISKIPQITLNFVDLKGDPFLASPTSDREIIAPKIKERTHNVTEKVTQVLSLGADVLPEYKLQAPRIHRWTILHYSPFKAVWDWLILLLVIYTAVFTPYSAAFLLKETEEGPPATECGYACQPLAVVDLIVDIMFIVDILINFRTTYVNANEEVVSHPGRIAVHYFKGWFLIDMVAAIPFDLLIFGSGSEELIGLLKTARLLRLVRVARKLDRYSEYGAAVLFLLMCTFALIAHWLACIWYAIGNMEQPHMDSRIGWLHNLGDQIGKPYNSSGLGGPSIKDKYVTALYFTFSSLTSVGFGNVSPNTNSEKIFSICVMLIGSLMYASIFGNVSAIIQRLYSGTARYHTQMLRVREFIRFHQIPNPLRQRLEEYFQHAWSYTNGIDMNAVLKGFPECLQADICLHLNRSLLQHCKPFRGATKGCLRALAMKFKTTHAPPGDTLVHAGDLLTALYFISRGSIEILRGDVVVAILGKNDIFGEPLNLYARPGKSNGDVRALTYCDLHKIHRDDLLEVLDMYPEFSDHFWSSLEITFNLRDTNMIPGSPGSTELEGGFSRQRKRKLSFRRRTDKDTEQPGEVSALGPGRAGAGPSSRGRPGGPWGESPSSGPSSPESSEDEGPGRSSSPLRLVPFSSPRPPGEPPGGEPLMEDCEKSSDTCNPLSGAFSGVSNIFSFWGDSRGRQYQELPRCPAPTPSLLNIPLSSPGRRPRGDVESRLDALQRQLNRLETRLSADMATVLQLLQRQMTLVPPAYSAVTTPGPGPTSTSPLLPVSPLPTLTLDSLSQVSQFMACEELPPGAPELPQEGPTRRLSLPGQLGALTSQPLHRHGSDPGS
row,Compound,"hERG current change (%, negative = inhibition) at 1uM [%]"
1,CSc1ccc(C(=O)C2CCCN(Cc3cc4ccccc4[nH]3)C2)cc1 (stereo not shown),-40.6
2,O=C(CC1S/C(=N\S(=O)(=O)c2ccc(F)cc2)N(c2ccccc2)C1=O)Nc1ccccc1 (stereo not shown),14.9
3,CCOC(=O)NC(=O)c1cn(Nc2ncc(C(F)(F)F)cc2Cl)c(=O)[nH]c1=O,17.1
4,COCCN(Cc1cc2cc3c(cc2nc1Cl)OCO3)C(=O)Nc1ccc(OC)cc1,15
5,Cc1ccc(Cc2ccc(C(=O)NNC(N)=S)o2)cc1,3.74
6,C=CCS(=O)(=O)N1CCCC(N(C)CCc2ccc(OC)c(OC)c2)C1 (stereo not shown),5.89
7,C=CP(=O)(O)c1ccccc1,14.7
8,CC(=O)Nc1cc[n+](CC(=O)c2ccc(Cl)cc2)cc1.[Br-],15.1
9,Cc1cccc(-c2nnc(SCCOc3ccc4c(C)cc(=O)oc4c3)o2)c1,8.66
10,CC(Oc1cccc(Cl)c1)C(=O)Nc1cc(S(=O)(=O)N2CCCCC2)ccc1N1CCOCC1 (stereo not shown),0.476
11,COc1ccc(N2C(=O)C3C(C2=O)C2C=CC3C23CC3)c([N+](=O)[O-])c1 (stereo not shown),11.9
12,COC(=O)C(CC(C)C)NC(=O)c1cc(OC)c(OC)c(OC)c1 (stereo not shown),-1.33
13,Cc1ccc(SCC(=O)N2CCOCC2)cc1,7.21
14,CC1CCc2cc(F)ccc2N1C(=O)CSc1nnc2c(n1)[nH]c1ccc(F)cc12 (stereo not shown),13.7
15,COCCN1Cc2cccc(C(=O)Nc3ccc(C)cc3)c2C1=O,-2.34
16,C#CCOCCOCCOCCNc1nc(N2CCN(C(=O)[C@H]([C@@H](C)CC)n3cc(CCC[NH+]=C(N)N)nn3)CC2)nc(N2CCN(C(=O)[C@H](CCCC[NH3+])n3cc(CCCC)nn3)CC2)n1.[Cl-],10.2
17,Cc1cc(N=Nc2ccc(Cl)cc2)cc(CN2CCCC2)c1O,13.8
18,Cc1cc(C(=O)Nc2cccc(NC(=O)c3ccco3)c2)ccc1[N+](=O)[O-],10
19,COc1ccccc1OCCNCC(O)COc1cccc2[nH]c3ccccc3c12 (stereo not shown),-14.6
20,CCOC(=S)SCc1cn2cccc(C)c2n1,10.1
21,N#Cc1ccccc1S(=O)(=O)Nc1ccc2c(c1)C(=O)OC2,13.3
22,O=Cc1ccc(OCc2nnc(-c3ccccc3Br)o2)cc1,-0.275
23,Nn1c(COc2ccccc2F)nnc1SCC(=O)NC1CCS(=O)(=O)C1 (stereo not shown),6.73
24,NS(=O)(=O)c1ccc(CCNC(=O)c2ccc(-c3ccccc3)cc2)cc1,9.1
25,O=C1Nc2cc(C(=O)NCCCN3CCOCC3)ccc2S/C1=C/c1cccc(Cl)c1,15.9
26,CN(CC(=O)NCCc1ccccn1)S(=O)(=O)c1ccc(Cl)cc1,5.02
27,COC(=O)C1(CCSC)NC(c2ccccc2OC)C2C(=O)N(C)C(=O)C21 (stereo not shown),5.27
28,COC(=O)C1=C(C)NC(=O)/C1=C\c1ccc2c(c1)OCO2,9.62

row,Compound,"hERG current change (%, negative = inhibition) at 1uM [%]"
1,O=C(CSc1ncn[nH]1)CSc1ncn[nH]1,16.8
2,CC1CN(C(=O)C(C)N2CCN(c3ccccc3Cl)CC2)CC(C)O1 (stereo not shown),12.1
3,O=C(CC1C(=O)N(c2ccc(F)cc2)C(=O)N1Cc1ccccn1)Nc1ccccc1 (stereo not shown),1.05
4,O=C(O)c1cc(C(=O)C2CC2)c[nH]1,10
5,Cc1ccccc1OCCCCn1c(CO)nc2ccccc21,-0.387
6,O=C(CN(C1CCCCC1)S(=O)(=O)c1ccc(Cl)cc1)NCc1ccncc1,-49.5
7,Cc1ccc(/C([O-])=C(/C(=S)NCCN2CCOCC2)[n+]2ccccc2)cc1[N+](=O)[O-],12.4
8,CCCCn1c(N)c(N(CC(C)C)C(=O)CCC2CCCCC2)c(=O)[nH]c1=O,15.4
9,CCOc1ccc(NC(=O)Cn2nc(-c3ccccc3Cl)n(CC)c2=S)cc1,11.9
10,CN(C)CCCn1c(=O)n(C2CCCCC2)c(=O)c2c3c(sc21)CCCCC3,-4.54
11,O=C(Nc1ccc(S(=O)(=O)N2CCCCC2)cc1)c1ccccc1Cl,-19.1
12,CC1CCc2c(sc3ncn(Cc4ccc(C(=O)O)cc4)c(=O)c23)C1 (stereo not shown),16.9
13,COc1ccc(-n2c(O)c(C=NCC(c3ccco3)N3CCCC3)c3ccccc3c2=O)cc1OC (stereo not shown),15.6
14,COc1ccc(Cl)cc1N(CC(=O)Nc1ccccc1C(=O)NCc1ccco1)S(C)(=O)=O,10.6
15,CC(NC(=O)c1cc(Br)ccc1Cl)c1ccccc1 (stereo not shown),8.07
16,CCc1c(C)nc2ncnn2c1NC1CCCc2ccccc21 (stereo not shown),7.29
17,O=C(NCCN1CCN(c2ccc([N+](=O)[O-])cc2)CC1)NCc1ccccc1,-20.2
18,COc1ccc(N(CC(=O)N2CCN(C)CC2)S(=O)(=O)c2ccccc2)cc1OC,7.23
19,COc1ccc(OCC(=O)OC2CCN(C)CC2)cc1.Cl,-0.291
20,O=[N+]([O-])c1cccc2cn[nH]c12,8.24
21,CC(NC(=O)COC(=O)CC(c1ccccc1)c1ccccc1)c1ccccc1 (stereo not shown),15.4
22,O=C(Nc1ccc(F)cc1)N1CCN(c2nc3ccccc3s2)CC1,12.3
23,CC(=O)N1CCCC(C(=O)c2ccc(Oc3ccccc3)cc2)C1 (stereo not shown),-3.12
24,COC(=O)CCSc1cc([N+](=O)[O-])cc2c1c(C1OCCO1)nn2-c1ccccc1,16.4
25,CCN(CC)S(=O)(=O)c1ccc(NC(=S)Nc2ccccc2)cc1,13.1
26,CCc1c(O)cc(=O)n(-c2ccccc2)c1-c1ccccc1,10.4
27,Cc1ccc(C)c(NC(=O)COC(=O)CCC(=O)c2cccs2)c1,16.3

# — PMC4336329 (PLoS ONE, 2015)
